{
  "source": "the RNAGym collection of RNA variant scans (doi:10.1073/pnas.2313332121)",
  "parents": {"B1": {"name": "TPR 5TU (parent)", "chain": "GGAUCUUCUCGAUCUAACAAAAAAGACAAAUCUGCCACAAAGCUUGAGAGCAUCUUCGGAUGCAGAGGCGGCAGCCUUCGGUGGCGCGAUAGCGCCAACGUUCUCAACUAUGACACGCAAAACGCGUGCUCCGUUGAAUGGAGUUUAUCAUG"}},
  "note": "This sample is rich in variants without activity.",
  "data": [
    {"variants_of": "B1", "assay": "polymerase ribozyme fitness, log enrichment relative to wild type (log ratio); higher = more active; in vitro selection for triplet polymerase activity", "in_short": "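Fitness measures genotype enrichment against wild-type enrichment on a logarithmic scale, with inverse-variance-weighted averaging of replicates. The logarithm is base 2, and genotypes were kept only with ≥10 input reads and ≥1 read per output in Illumina sequencing. The sequenced libraries came from one triplicate in vitro selection round, including frozen incubation at −7 °C, of PCR-built, transcribed mutant libraries of each subunit of a heterodimeric triplet polymerase ribozyme.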", "values": [
      {"variant": "GGAUCUUCUCGAUCUAACAAAAAAGACAAAUCUGACACAAAGCUUGAGAGCAUCUUCGGAAGCAGAGGCGGCAGCCUUCGGUGACGCGAUAGCGCCAACGUUCUCAACGAUGACACGCAAAACGCGUGCUCCGUUGAAUGGAGUUUAUCAUG", "note": "[C35A U61A G84A U109G]", "polymerase ribozyme fitness (log ratio)": "≤ -4.2"},
      {"variant": "GGAUCUUCUCGAUCUAACAAAAAAGACAAAUCUGACACAAAGCUUGAGACCAUCUUCGGAUGCACAGGCGGCAGCCUUCGGUGGCGCGAUAGCGCCAACGUUCUCAACUAUGACACGCAAAACGCGUGCUCCGUUGAAUGGAGUUUAUCAUG", "note": "[C35A G50C G65C]", "polymerase ribozyme fitness (log ratio)": "≤ -4.2"},
      {"variant": "GGAUCUUCUCGAUCUAACAAAAAAGACAAAUCUGACACAAAGCUUGAGAGCAUCUUCGGAUGCAGAGGCCGCAGCCUUCGGUGGCGCGAUAGCGUCAAUGUUCUCAACUAUGACACGGAAAACGCGUGCUCCGUUGAAUGGAGUUGAUCAAG", "note": "[C35A G70C C95U C99U C118G U146G U151A]", "polymerase ribozyme fitness (log ratio)": "≤ -4.2"},
      {"variant": "GGAUCUUCUCGAUCUAACAAAAAAGACAAAUCUGGCACAUAGCUUGAGACCAUCUUCGGAUGCAGAGGCGGCAGCCAUCGGUGGCGCGAUACCGCCAACGUUCUCAACUAUGACAGGCAAAACGCGUGCUCCGUUGAAUGGAGUUUAUCAUG", "note": "[C35G A40U G50C U77A G92C C116G]", "polymerase ribozyme fitness (log ratio)": "≤ -4.2"},
      {"variant": "GGAUCUUCUCGAUCUAACAAAAAAGACAAAUCUGACACAAAGCUUGAGAGCAUCUUCGGAUGCAGAGGCGGCAGCCUUCGGUGGCGCGAUAGCGCCAACGCUCUCAACUAUGACACGCAAAACGCGUGCUCCGUUGAAUGGAGUUUAUCAUG", "note": "[C35A U101C]", "polymerase ribozyme fitness (log ratio)": -3.87},
      {"variant": "GGAUCUUCUCGAUCUAACAAAAAAGACAAAUCUGACACAAAGCUUGAGAGCAUCUUCGGAUGCAGAGGCGGCAGCCUUCGGUGGCGCGAUAGCGCAAACGUUCUCAUCUAUGACACGCAAAACGCGUGCUCCGUUGAAUGGAGUUUAUCAUG", "note": "[C35A C96A A107U]", "polymerase ribozyme fitness (log ratio)": "≤ -4.2"},
      {"variant": "GGAUCUUCUCGAUCUAACAAAAAAGACAAAUCUGACACAAAGCUUGAGAGCAUCUUCGGAUGCAGAGGCGGCAGCCUUCAGUGGCGCGAUAGCGCCAACGUUCGCAACUAUGACACGCAAAACGCGUGCUCCGUUGAAUGGAGGUUAUCAUG", "note": "[C35A G80A U104G U144G]", "polymerase ribozyme fitness (log ratio)": "≤ -4.2"},
      {"variant": "GGAUCUUCUCGAUCUAACAAAAAAGACAAAUCUGACACAAAGCUUGAGAGCAUCUUCGGAUGCAGAGGCAGCAGCCUUCGGUGGCGCGGUAACGCCAACGUUCUCAACUAUGACACGCAAAACGCGUGCUCCGUUGAAUGGAGUUUAUCAUG", "note": "[C35A G70A A89G G92A]", "polymerase ribozyme fitness (log ratio)": "≤ -4.2"},
      {"variant": "GGAUCUUCUCGAUCUAACAAAAAAGACAAAUCUGACACAAAGCUUGAGAGCAUCUUCGAAUGCAGAGGCGGCAGCCUUCGGUGGCGCGGUAGCGGCAACGUUCUCAACUAUGAUACGCAAAACGCGUGCUCCGUUGAAUGGAACUUAUCAUG", "note": "[C35A G59A A89G C95G C114U G143A U144C]", "polymerase ribozyme fitness (log ratio)": "≤ -4.2"},
      {"variant": "GGAUCUUCUCGAUCUAACAAAAAAGACAAAUCUGACACAAAGCUUCAGAGCAUCUUCGGAUGCAGAGGCGGCAGCCUUCGGUGGCGCGAUAGCGCCAAGGUUCUCAACUAUGACACGCAAAACGCGUGCUCCUUUGAAUGGAGUUUAUCAUG", "note": "[C35A G46C C99G G133U]", "polymerase ribozyme fitness (log ratio)": "≤ -4.2"},
      {"variant": "GGAUCUUCUCGAUCUAACAAAAAAGACAAAUCUGACACAAAGCUUGAGAGCAUCUACCGAUGCAGAGGCGGCACCCUUCGGUGGCGCGAUAGCGCCAACGUUCUCAACUAUGACACGCAAAACGCGUGCUCCGUUGAAUGGAGUUUAUCAUG", "note": "[C35A U56A G58C G74C]", "polymerase ribozyme fitness (log ratio)": "≤ -4.2"},
      {"variant": "GGAUCUUCUCGAUCUAACAAAAAAGACAAAUCUGACACAAAGCUUGAGAGCAUCUACGGAUGCAGAGGCGGCAGCGUUCGGUGGCGCGAUAGCGCCAACGUUCUCAACUAUGACACGCAAAACGCGUGCUCCGAUGAAUGGAGUUUAUCAUG", "note": "[C35A U56A C76G U134A]", "polymerase ribozyme fitness (log ratio)": "≤ -4.2"},
      {"variant": "GGAUCUUCUCGAUCUAACAAAAAAGACAAAUCUGACACAAAGCUUGAGAGCAUCUUCGGAAGCAGAGGCGGCAGCCUUCGGUGGCGCGAUAGCGCCAACGUUGCCAACUAUGACAUGCAAAACGCGUGCUCCGUUGAAUGGAGUUUAUCAUG", "note": "[C35A U61A C103G U104C C116U]", "polymerase ribozyme fitness (log ratio)": "≤ -4.2"},
      {"variant": "GGAUCUUCUCGAUCUAACAAAAAAGACAAAUCUGACACAAAGCUAGAGAGCAUCUUCGGAUGCAGCGGCCGCAGCCUUCGGUGGCGCGAUAGCGCCAACGUUCUCAACUAUGACACGCAAAACGCGUGCUCCGUUGAAUGGAGUUUAUCAUG", "note": "[C35A U45A A66C G70C]", "polymerase ribozyme fitness (log ratio)": "≤ -4.2"},
      {"variant": "GGAUCUUCUCGAUCUAACAAAAAAGACAAAUCUGACACAAAGCUUGAGAGCAUCUUCGGAUGCAGAGGCGGCAGCCUUCGGUCGCGCGAUAGCGCCAACGUUCUCAGCUAUGAGACGCAAAACGCGUGCUCCGUUGAAUGGAGUUUAUCAUG", "note": "[C35A G83C A107G C114G]", "polymerase ribozyme fitness (log ratio)": "≤ -4.2"},
      {"variant": "GGAUCUUCUCGAUCUAACAAAAAAGACAAAUCUGACACAAAGCUUGAGAGCAUCUUCGGAUGCAGAGGCGGCAUCCUUCGGUGGCGCGCUAGCGCCAACGUUCUCAACUAUGACACGCAAAACGCGUGCUCCGUUGAAUGGAGUUUAUCAUG", "note": "[C35A G74U A89C]", "polymerase ribozyme fitness (log ratio)": "≤ -4.2"},
      {"variant": "GGAUCUUCUCGAUCUAACAAAAAAGACAAAUCUGGCACAAAGCUUGCGAGCAUCUUCGGAUGCAGAGGGGGCAGCCGUCGGCGGCGCGAUAGCGCCAACGUUGUCAACUAUGACACGCAAAACGCGUUCGCCGUUGAAUGGAGUUUAUCACG", "note": "[C35G A47C C69G U77G U82C C103G G128U U130G U151C]", "polymerase ribozyme fitness (log ratio)": "≤ -4.2"},
      {"variant": "GGAUCUUCUCGAUCUAACAAAAAAGACAAAUCUGACACAAAGCUUGAGAGCAUCUUCGGAUGCAGAGGCCGCAGCCUUCGGUGGCGCGUUCGCGCCAACGUUCUCAACUAUGACACGCAAAACGCAUGCUCCGUUGAAUGGAGUUUAUCAUG", "note": "[C35A G70C A89U A91C G126A]", "polymerase ribozyme fitness (log ratio)": "≤ -4.2"},
      {"variant": "GGAUCUUCUCGAUCUAACAAAAAAGACAAAUCUGACACAAAGCUUGAGAGCAUCAUCGGAUGCAGAGGCGGCAGCCUUCGGUGGCGCGAUAGCGCCAACGUUCUCAAAUAUGACACGCAAAACGCGUGCUCCGAUGAAUGGAGUAUAUCAUG", "note": "[C35A U55A C108A U134A U145A]", "polymerase ribozyme fitness (log ratio)": "≤ -4.2"}
    ]}
  ]
}
